Holding throughout (assay): inhibition of tumour cell growth, NCI panel, 48 h
The test system of assay [1] is CCRF-CEM leukemia.
Assay [2] relates to HL-60(TB) leukemia.
Assay [3] concerns K-562 leukemia.
In assay [4] the test system is HOP-92 NSCLC.
The subject of assay [5] is 786-0 renal.
Assay [6] concerns A549 NSCLC.
The test system of assay [7] is ACHN renal.
Assay [8] deals with CAKI-1 renal.
Assay [9] concerns HCT-116 colon.
Assay [10] deals with IGROV1 ovarian.
The subject of assay [11] is MDA-MB-231 breast.
Assay [12] deals with MDA-MB-435.
Assay [13] relates to NCI-H460 lung.
In assay [14] the test system is NCI-H522 lung.
Assay [15] relates to OVCAR-3 ovarian.
The subject of assay [16] is OVCAR-4 ovarian.
Assay [17] deals with OVCAR-8 ovarian.
The test system of assay [18] is PC-3 prostate.
For assay [19], the system named is RPMI-8226 leukemia.
For assay [20], the system named is RXF 393 renal.
For assay [21], the system named is SK-MEL-2 melanoma.
Assay [22] has as its system SK-MEL-5 melanoma.
Assay [23] relates to SR leukemia.
The subject of assay [24] is TK-10 renal.
For assay [25], the system named is U251 CNS.
Assay [26] concerns UACC-62 melanoma.
Assay [27] relates to UO-31 renal.

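Test compounds were applied to cells in 96-well plates for 48 hours at 5 doses. GI50 marks 50% less growth.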 The source holds more than one record for some entries. This is not the full list of results. The source may hold further records. For some of these results: A record mostly stands for its own series of concentrations, not given here; a value can be the end of its range. For some of these results: Values given together repeat one measurement (runs, samples, wells, individuals or studies). A tag in brackets gives the origin of a value. The letters are not those of the source and start again with each entry.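 TGI marks complete inhibition of growth.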 Where only a bound is given, the exact number is not on record here.

As to `CC(C)(Br)C(=O)C(Br)Br`, the TGI in assay [1] is 4.85 µM and > 309 µM; in assay [2], 5.11 µM and > 309 µM; in [3] it was 13.9 µM and > 309 µM.

In the case of `O=[N+]([O-])c1ccc(OC2CC3C4C=CC3C2C4)c([N+](=O)[O-])c1` (centres undefined), the GI50 in assay [4] was > 100 µM [sample A, 1 test] and 5.34 µM [sample B, mean of 2 tests].

Take `C/C(=N/N=C(\[O-])c1ccncc1)C(F)(F)F.C/C(=N\N=C(/[O-])c1ccncc1)C(F)(F)F.[Ni+2]`: the GI50 is 2.26 nM and > 1 µM in assay [5]; 2.46 nM and > 1 µM in assay [6]; 1.75 nM and > 1 µM in [7]; 2.27 nM and > 1 µM in [8]; 3.11 nM and > 1 µM in assay [9]; 2.98 nM and > 1 µM in [10]. Also, the GI50 was 2.62 nM and > 1 µM in assay [11]; 2.39 nM and > 1 µM in [12]; 1.08 nM and > 1 µM in [13]; 1.21 nM and > 1 µM in assay [14]; 2.82 nM and > 1 µM in assay [15]; 0.421 nM and > 1 µM in [16]. Also, the GI50 in [17] was 2.47 nM and > 1 µM; in [18] it was 0.658 nM and > 1 µM; in assay [19], 0.245 nM and > 1 µM; in assay [20], 3.4 nM and > 1 µM; in [22], 3.29 nM and > 1 µM; in assay [23] it was 1.38 nM and > 1 µM. For the same compound, the GI50 was 3.44 nM and > 1 µM in [24]; 1.11 nM and > 1 µM in assay [26]; 2.5 nM and > 1 µM in assay [27]. For the same compound, the TGI in assay [5] is 5 nM and > 1 µM; in assay [6] it was 5 nM and > 1 µM; in [7], 5 nM and > 1 µM; in assay [8] it was 5 nM and > 1 µM; in assay [9], 5 nM and > 1 µM; in [10], 5 nM and > 1 µM. Also, the TGI in [11] is 5 nM and > 1 µM; in assay [12], 5 nM and > 1 µM; in assay [13] it was 5 nM and > 1 µM; in assay [14] it was 5 nM and > 1 µM; in assay [15] it was 5 nM and > 1 µM; in assay [16], 5 nM and > 1 µM. In addition, the TGI was 5 nM and > 1 µM in assay [17]; 5 nM and > 1 µM in assay [18]; 2.73 nM and > 1 µM in assay [19]; 5 nM and > 1 µM in assay [20]; 5 nM and > 1 µM in [21]; 5 nM and > 1 µM in [22]. Also, the TGI in [23] is 5 nM and > 1 µM; in assay [24], 5 nM and > 1 µM; in assay [25], 5 nM and > 1 µM; in [26] it was 5 nM and > 1 µM; in assay [27], 5 nM and > 1 µM.

Turning to `Cc1cc(N=Nc2ccccc2C)ccc1N`, the TGI in [2] is > 100 µM [sample A] and 7.34 µM [sample B].

For the origin of these results see PubChem BioAssay (NCI).
